Measurements reported in article PMC4336329 (PLoS ONE, 2015).
The whole screen tested about 310,000 compounds, of which about 14,000 (4.5%) showed an effect of 50% or more. Effects have a minus sign here. This is one part of the list.

The compounds below were run against human ether-à-go-go-related gene (hERG) potassium channel (human, UniProt Q12809) (assay: primary screen, population patch clamp on CHO cells stably expressing hERG).
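Also: peak tail current of the secondary pulse compared with the same well before compound.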

Chain of human ether-à-go-go-related gene (hERG) potassium channel (Q12809 whole entry, looked up): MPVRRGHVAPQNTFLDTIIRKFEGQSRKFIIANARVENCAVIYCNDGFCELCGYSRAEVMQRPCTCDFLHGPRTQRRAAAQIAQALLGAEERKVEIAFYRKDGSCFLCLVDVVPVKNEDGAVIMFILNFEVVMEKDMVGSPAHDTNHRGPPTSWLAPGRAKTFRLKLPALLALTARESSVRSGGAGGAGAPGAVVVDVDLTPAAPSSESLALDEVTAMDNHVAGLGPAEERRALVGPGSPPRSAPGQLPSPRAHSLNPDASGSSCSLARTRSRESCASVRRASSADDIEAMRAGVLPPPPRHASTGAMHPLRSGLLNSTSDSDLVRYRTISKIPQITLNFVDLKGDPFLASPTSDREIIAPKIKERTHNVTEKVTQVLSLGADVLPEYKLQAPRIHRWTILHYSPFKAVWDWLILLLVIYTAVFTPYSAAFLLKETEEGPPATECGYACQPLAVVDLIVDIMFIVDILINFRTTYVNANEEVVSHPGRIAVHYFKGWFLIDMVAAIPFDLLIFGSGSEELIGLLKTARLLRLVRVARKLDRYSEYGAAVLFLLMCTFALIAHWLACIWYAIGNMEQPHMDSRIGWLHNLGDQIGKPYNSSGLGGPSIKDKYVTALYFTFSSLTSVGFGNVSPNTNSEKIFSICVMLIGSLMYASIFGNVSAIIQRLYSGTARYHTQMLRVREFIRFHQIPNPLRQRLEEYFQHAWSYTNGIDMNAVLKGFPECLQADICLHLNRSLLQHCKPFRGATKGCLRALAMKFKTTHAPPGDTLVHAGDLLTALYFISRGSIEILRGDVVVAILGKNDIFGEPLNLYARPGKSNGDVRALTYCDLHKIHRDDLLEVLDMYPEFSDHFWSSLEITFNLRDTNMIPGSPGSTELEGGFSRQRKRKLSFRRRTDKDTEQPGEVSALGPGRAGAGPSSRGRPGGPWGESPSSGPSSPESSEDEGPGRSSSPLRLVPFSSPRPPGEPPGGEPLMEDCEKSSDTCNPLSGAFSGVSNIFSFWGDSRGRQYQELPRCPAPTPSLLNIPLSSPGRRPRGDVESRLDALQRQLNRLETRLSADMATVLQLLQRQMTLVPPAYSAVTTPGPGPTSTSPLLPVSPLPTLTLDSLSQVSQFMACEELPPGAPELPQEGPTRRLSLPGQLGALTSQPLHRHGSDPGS

Row | SMILES | hERG current change (%, negative = inhibition) at 10uM
1 | Cc1ccc(OCCCn2c(=O)sc3ccccc32)cc1 | 9.85%
2 | CN1CC(C(=O)c2ccccc2)C(c2ccccc2)C1 (stereo not shown) | -5.47%
3 | CC1CN(CC(=O)NCc2ccc(F)cc2)CC(C)O1 (stereo not shown) | 7.79%
4 | Cc1cc(NCCOCCO)n2ncc(-c3ccc(Cl)cc3)c2n1 | -7.88%
5 | CCOc1ccc(-c2[nH]nc3c2C(c2ccc4c(c2)OCO4)C(C#N)=C(N)O3)cc1OC (stereo not shown) | -14.7%
6 | O=c1n(-c2ccccc2)c(=O)n2n1CCC2 | 4.46%
7 | CCCCCCC(=O)Nc1ccc(S(=O)(=O)Nc2onc(C)c2C)cc1 | 13.6%
8 | CC1CCCCC1NC(=O)COC(=O)Cc1ccc(Br)cc1 (stereo not shown) | 26.3%
9 | CCOc1ccc(CNS(=O)(=O)c2cc(CN3C(=O)c4cccnc4C3=O)ccc2OC)cc1 | -0.0578%
10 | Cc1nn(Cc2ccc([N+](=O)[O-])cc2)c(=O)n1-c1ccccc1 | -15.1%
11 | CCOC(=O)c1c(N)sc(C(=O)Nc2ccc3c(c2)OCO3)c1C | -15.6%
12 | CNC(=O)NC(=O)CSc1nc2ccccc2n1CCOC | -0.841%
13 | O=C(NC1CCCC1)C(c1ccncc1)N(C(=O)c1csnn1)c1cccc(F)c1 (stereo not shown) | 17.2%
14 | Cc1cc(C)nc(Nc2ncc(O)n2-c2ccc(C)c(Cl)c2)n1 | -2.3%
15 | c1ccc(CN2CCN(c3nc4ccccc4s3)CC2)cc1 | 11.8%
16 | COc1cc(CNCc2ccccc2C(F)(F)F)cc(OC)c1.O=C(O)C(=O)O | 22.7%
17 | CCCCOc1ccccc1C1NC(=O)CCC1[N+](=O)[O-] (stereo not shown) | 3.86%
18 | CCC1Sc2ccc(S(=O)(=O)CCC(=O)N3CCc4ccccc43)cc2NC1=O (stereo not shown) | 6.88%
19 | COc1ccc(N2CCN(C(=O)[C@@H](NC(=O)c3ccccc3Cl)C(C)C)CC2)cc1 | 11%
20 | Cc1ccc(C(=O)CSc2nnc(-c3ccco3)n2C)cc1 | -27.2%

Row | SMILES | hERG current change (%, negative = inhibition) at 10uM
21 | COc1ccc(CCC(C)N(C)Cc2ccccc2)cc1 (stereo not shown) | -34.8%
22 | CN1/C(=C\C(=O)C[n+]2cccc(Br)c2)C(C)(C)c2ccccc21.[Cl-] | 0.184%
23 | CCSCCc1nnc(NC(=O)Nc2cccc(C(F)(F)F)c2)s1 | 15.2%
24 | Cc1noc(C)c1/C=N/Nc1ccccn1 | 13.2%
25 | CCCC(=O)Nc1ccc(S(=O)(=O)N2CCC(c3nc4ccccc4[nH]3)CC2)cc1 | -47.9%
26 | S=C(NCCCCNC(=S)NCc1ccccc1)NCc1ccccc1 | -9.12%
27 | CC(=O)Nc1ccc(S(=O)(=O)N(C)CC(=O)OCC(=O)N2CCCCCC2)cc1 | 15.1%
28 | Cc1ccc(S(=O)(=O)c2c(N)n(/N=C/c3ccco3)c3nc4ccccc4nc23)cc1 | -2.58%
29 | O=Cc1c(Nc2ccccc2Cl)nc2ccccn2c1=O | 9.83%
30 | C/C(CC(=O)Nc1ccc(F)cc1)=N\NC(=O)c1ccccn1 | -9.09%
31 | COC(=O)C(C(=O)Nc1ccccc1C)C1CCCCCC1 (stereo not shown) | -5.58%
32 | C=CCNC(=S)N/N=C/c1ccc(OCc2ccccc2Cl)cc1 | -6.71%
33 | CC1CCCCC12NC(=O)N(CC(=O)NCCc1ccc(S(N)(=O)=O)cc1)C2=O (stereo not shown) | -10.4%
34 | CCCCCNC(=O)c1cc(S(=O)(=O)N2CCCC2)ccc1F | -22.8%
35 | Cc1ccc(-n2c(-c3cnccn3)n[nH]c2=S)c(Br)c1 | 6.06%
36 | Cn1nnnc1SC1CC(=O)N(c2ccccc2)C1=O (stereo not shown) | 2.48%
37 | CCOC(=O)c1cc(C(=O)OCC)c(=O)[nH]c1C | -5.37%
38 | Cc1ccc(N2CC(C(=O)Nc3ccc(S(=O)(=O)Nc4nccs4)cc3)CC2=O)cc1 (stereo not shown) | 36.2%
39 | CC(C)Oc1ccc(CC2CC(=O)NC2=O)cc1 (stereo not shown) | 9.46%
40 | CC[N+](C)(CC)CCCOC(=O)C(O)(c1ccccc1)C1CCCCC1.[I-] (stereo not shown) | 13.4%

Row | SMILES | hERG current change (%, negative = inhibition) at 10uM
41 | COC(=O)c1ccccc1NC(=O)CN1C(=O)NC2(CCCCCCC2)C1=O | 3.83%
42 | CC[n+]1c(C)n(-c2ccccc2)c2ccc(C(=O)OC)cc21.[I-] | 15.9%
43 | CN(C)C(=O)c1cn(N(C)c2ncc(C(F)(F)F)cc2Cl)c(=O)c2ccccc12 | -3.76%
44 | Cc1ccc(C(=O)Nc2nc(N)n(-c3ccccc3)n2)cc1 | -0.817%
45 | CCOc1cccc(C(=O)Nc2ccc3c(c2)OCCO3)c1 | 3.35%
46 | Cc1ccccc1-n1nc(-c2cccnc2)cc1C(=O)NN | 5.78%
47 | CCC(C)C(=O)Nc1nnc(SCC(=O)Nc2ccccc2F)s1 (stereo not shown) | 10.1%
48 | COc1ccc(CC2(CO)CCN(Cc3cccc(OC)c3OC)CC2)cc1 | -60.5%
49 | O=C(CC(C(=O)O)c1ccc(Cl)cc1)c1ccc(Cl)c(Cl)c1 (stereo not shown) | 13.7%
50 | Cc1ccc(S(=O)(=O)N2CCCCC2)cc1NC(=O)c1c(-c2ccccc2)noc1C | -8.93%
51 | O=S(=O)(Nc1cc(Cl)ccc1-n1cncn1)c1ccc(F)cc1 | 9.15%
52 | CCC1CCCCN1CCCNC(=O)c1ccc2nc(N3CCC(C)CC3)sc2c1 (stereo not shown) | -64.5%
53 | COCCCNC(=O)CC(NS(=O)(=O)c1ccc(F)cc1)c1ccc(OC)cc1 (stereo not shown) | -1.73%
54 | Cc1ccc(-c2nc3ccccn3c2NCc2ccc3c(c2)OCO3)cc1 | -69.3%
55 | N#CC1=C(Nc2ccc(Br)cc2)CCC1 | -13.7%
56 | CCN(CC)c1ccc(C(=O)OCC(=O)Nc2ccccc2-c2ccccc2)cc1 | 17.9%
57 | c1ccc(-c2nnc(SCc3nnc(-c4cccs4)o3)o2)cc1 | -40.5%
58 | O=C1NC(=O)/C(=C\c2ccccc2Oc2ccc(F)c(F)c2)S1 | 18.6%
